Experimental findings from paper PMC4336329 (PLoS ONE, 2015) are described below.

The campaign covered roughly 310,000 compounds. About 14,000 (4.5%) showed an effect of 50% or more. Effects have a minus sign here. The list shows a part of the results.
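Further: peak tail current of the secondary pulse compared with the same well before compound.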

The assay deals with human ether-à-go-go-related gene (hERG) potassium channel (human, UniProt Q12809). In words: primary screen, population patch clamp on CHO cells stably expressing hERG.
Sequence of human ether-à-go-go-related gene (hERG) potassium channel (Q12809 whole entry, looked up): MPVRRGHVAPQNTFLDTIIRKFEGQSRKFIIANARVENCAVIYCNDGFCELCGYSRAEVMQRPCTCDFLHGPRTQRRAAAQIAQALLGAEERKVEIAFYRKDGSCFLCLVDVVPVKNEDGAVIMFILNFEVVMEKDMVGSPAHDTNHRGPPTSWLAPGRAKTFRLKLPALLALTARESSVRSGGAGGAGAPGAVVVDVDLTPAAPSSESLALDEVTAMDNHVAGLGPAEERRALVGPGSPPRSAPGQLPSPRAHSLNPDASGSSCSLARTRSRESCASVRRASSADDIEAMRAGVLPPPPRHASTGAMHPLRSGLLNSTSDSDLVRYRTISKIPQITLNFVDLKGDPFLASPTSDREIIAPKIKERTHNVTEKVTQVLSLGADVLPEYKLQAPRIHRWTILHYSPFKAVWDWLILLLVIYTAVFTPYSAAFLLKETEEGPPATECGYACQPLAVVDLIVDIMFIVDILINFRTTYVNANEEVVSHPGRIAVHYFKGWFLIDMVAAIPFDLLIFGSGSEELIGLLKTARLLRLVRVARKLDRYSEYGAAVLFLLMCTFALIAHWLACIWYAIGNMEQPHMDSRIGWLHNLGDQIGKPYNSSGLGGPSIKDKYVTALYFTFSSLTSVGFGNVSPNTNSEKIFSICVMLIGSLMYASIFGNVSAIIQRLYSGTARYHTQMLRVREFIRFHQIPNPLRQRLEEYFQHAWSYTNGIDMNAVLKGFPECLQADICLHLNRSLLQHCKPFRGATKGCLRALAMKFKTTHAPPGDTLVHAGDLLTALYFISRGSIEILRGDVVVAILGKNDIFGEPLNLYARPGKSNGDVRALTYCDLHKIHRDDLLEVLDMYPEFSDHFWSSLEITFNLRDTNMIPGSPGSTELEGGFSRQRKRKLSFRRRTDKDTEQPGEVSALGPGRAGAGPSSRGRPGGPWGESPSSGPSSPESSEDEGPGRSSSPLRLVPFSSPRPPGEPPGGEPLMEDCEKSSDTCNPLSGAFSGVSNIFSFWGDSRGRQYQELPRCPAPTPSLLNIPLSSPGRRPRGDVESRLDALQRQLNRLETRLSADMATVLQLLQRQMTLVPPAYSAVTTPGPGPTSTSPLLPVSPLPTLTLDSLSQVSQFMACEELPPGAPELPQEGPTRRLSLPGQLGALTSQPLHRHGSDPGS
As for `CC12C=CC3(O1)C(C(=O)N1CCCOC13)C2C(=O)O` (stereo not shown), the “hERG current change (%, negative = inhibition) at 10uM” value is on record as -2.54%.

As for `CCOC(=O)c1sc(NC(=O)c2ccccc2OC)nc1C`, the “hERG current change (%, negative = inhibition) at 10uM” value is 24.2%.

On to `CS/C(=N\S(=O)(=O)c1cccs1)Nc1ccc(F)cc1`, for which the “hERG current change (%, negative = inhibition) at 10uM” value is -21.6%.

Take `Cc1ccc(S(=O)(=O)c2cc3cc(Br)ccc3oc2=O)cc1`: the “hERG current change (%, negative = inhibition) at 10uM” value is given as -3.16%.

With `CC(C)Cn1c(-c2ccccc2F)n[nH]c1=S`, the “hERG current change (%, negative = inhibition) at 10uM” value amounted to 4.43%.

For the molecule `COC(=O)c1cn(NC(=O)CCC2CCCC2)c(=O)c2ccccc12`, the “hERG current change (%, negative = inhibition) at 10uM” value is -10%.

Regarding `CCN(CC)S(=O)(=O)c1ccc(C(=O)NNC(=O)c2cccs2)cc1`, the “hERG current change (%, negative = inhibition) at 10uM” value is listed as -2.66%.

`CC1CCCCC1NC(=O)COC(=O)CNC(=O)c1cccc(F)c1` (stereo not shown): the “hERG current change (%, negative = inhibition) at 10uM” value amounted to 21.9%.

On to `CC1CCN(CCCNC(=O)c2ccc3c(Cl)c4c(nc3c2)CCCC4)CC1`, for which the “hERG current change (%, negative = inhibition) at 10uM” value was -40.9%.

As for `Cc1ccccc1NC(=S)N1CCC(C(=O)c2ccc(F)cc2)CC1`, the “hERG current change (%, negative = inhibition) at 10uM” value was -45%.

In the case of `Cc1ccc(C(=O)N(C)Cc2ccc(N3CCOCC3)cc2)cc1S(=O)(=O)NCc1ccccc1`, the “hERG current change (%, negative = inhibition) at 10uM” value is -55.6%.

Take `COc1ccc(C(CNC(=O)Cn2c(=O)oc3ccccc32)N(C)C)cc1` (stereo not shown): the “hERG current change (%, negative = inhibition) at 10uM” value was 8.59%.

As for `COc1ccc(S(=O)(=O)N2CCCCCC2)cc1C(=O)N(C)CCOc1ccc(Cl)cc1`, the “hERG current change (%, negative = inhibition) at 10uM” value is recorded as -47.7%.

Take `COc1ccc(/C(N)=N/OC(=O)CCc2ccccc2)cc1`: the “hERG current change (%, negative = inhibition) at 10uM” value came out at 12.4%.

As to `CC(C)CCn1c(COc2ccccc2)nn(CCC#N)c1=S`, the “hERG current change (%, negative = inhibition) at 10uM” value is reported as 7.59%.

In the case of `COc1ccc(NC(=O)C2CCN(C(=O)NCc3ccccc3)CC2)cc1`, the “hERG current change (%, negative = inhibition) at 10uM” value is on record as -7.59%.

As for `COc1ccc(-n2nc(C(=O)NCC(=O)N3CCC(C)CC3)c3ccccc3c2=O)cc1`, the “hERG current change (%, negative = inhibition) at 10uM” value is listed as 0.344%.

Take `CCOC(=O)CSc1nc2sc(C)c(C)c2c(=O)n1C`: the “hERG current change (%, negative = inhibition) at 10uM” value is recorded as -0.412%.

On to `CCC(=O)N1N=C(c2ccc(Cl)cc2)CC1c1ccco1` (stereo not shown), for which the “hERG current change (%, negative = inhibition) at 10uM” value came out at 0.74%.

Consider `CC(C)CNC(=O)c1cccc(NC(=O)c2ccco2)c1`, for which the “hERG current change (%, negative = inhibition) at 10uM” value is on record as -3.01%.

For `COCCn1cnc2c(c1=O)c1nc3ccccc3nc1n2/N=C/c1ccc(OC)c(OC)c1`, the “hERG current change (%, negative = inhibition) at 10uM” value is reported as -13.4%.

As for `CCOc1ccc(NC(=O)CSc2ncn[nH]2)cc1`, the “hERG current change (%, negative = inhibition) at 10uM” value is listed as 6.81%.

Take `CC1CCC(NC(=O)CSc2nnnn2C)CC1` (stereo not shown): the “hERG current change (%, negative = inhibition) at 10uM” value came out at 6.96%.

Consider `CC(=O)N/C(=C/c1ccc(Cl)cc1)C(=O)NCCc1c[nH]c2ccccc12`, for which the “hERG current change (%, negative = inhibition) at 10uM” value is on record as -20.8%.

In the case of `CCCCC(=O)Nc1nc2c(OC)cc([N+](=O)[O-])cc2s1`, the “hERG current change (%, negative = inhibition) at 10uM” value is listed as 9.98%.

With `CCCOc1ccc(N2CC(C(=O)NC(C)C)CC2=O)cc1` (stereo not shown), the “hERG current change (%, negative = inhibition) at 10uM” value stood at 8.32%.

For `CC(C)(C)c1cc(NCc2ccccn2)n2ncc(-c3ccc(Cl)cc3)c2n1`, the “hERG current change (%, negative = inhibition) at 10uM” value came out at 20.1%.

As for `COc1cc2[nH]c(-c3cccc(F)c3)cc(=O)c2cc1OC`, the “hERG current change (%, negative = inhibition) at 10uM” value was 21.5%.

For `C/C=C/c1ccc(OCC(O)CN(C)Cc2ccc(SC)cc2)c(OC)c1.O=C(O)C(=O)O` (stereo not shown), the “hERG current change (%, negative = inhibition) at 10uM” value was -71.2%.

For the molecule `Cc1ccc(Cl)cc1N1CCN(S(=O)(=O)c2c(C(=O)N3CCOCC3)c(C)n(C)c2C)CC1`, the “hERG current change (%, negative = inhibition) at 10uM” value was -11%.

For the molecule `CCc1ccc(/C=C2/C(=O)N(c3ccccc3)C(=S)N2CC(=O)OC)s1`, the “hERG current change (%, negative = inhibition) at 10uM” value is given as 7.72%.

`COC(=O)CN(c1ccccc1)S(=O)(=O)c1ccccc1`: the “hERG current change (%, negative = inhibition) at 10uM” value is 4.04%.

In the case of `CCNc1nc2nc3ccc(C)cn3c(=O)c2cc1C(=O)NCC1CCCO1` (stereo not shown), the “hERG current change (%, negative = inhibition) at 10uM” value is on record as -70.6%.

`Cc1ccccc1NC1=NCC(c2ccc([N+](=O)[O-])cc2)S1` (stereo not shown): the “hERG current change (%, negative = inhibition) at 10uM” value is given as -44.9%.

For `CCn1c(SCC(=O)N2CCCc3ccccc32)nnc1-c1ccoc1C`, the “hERG current change (%, negative = inhibition) at 10uM” value is on record as -8.22%.

For the molecule `COC(=O)CSc1ccsc1C(=O)O`, the “hERG current change (%, negative = inhibition) at 10uM” value worked out at 5.72%.

For the molecule `COc1cc(CNc2nc(C)c([N+](=O)[O-])c(C)c2C#N)cc(OC)c1`, the “hERG current change (%, negative = inhibition) at 10uM” value is 10.8%.

With `Fc1ccccc1-c1nc(N2CCCCC2)c2ccccc2n1`, the “hERG current change (%, negative = inhibition) at 10uM” value was -1.61%.

As to `O=C(COc1cccc2cccnc12)NCC(F)(F)F`, the “hERG current change (%, negative = inhibition) at 10uM” value stood at 7.06%.

On to `COc1ccc(NC(=O)CCCC2CCCCC2)c(OC)c1`, for which the “hERG current change (%, negative = inhibition) at 10uM” value turned out to be 11.2%.

Consider `CCCN(CC(=O)Nc1ccccc1OC)C(=O)c1ccncc1`, for which the “hERG current change (%, negative = inhibition) at 10uM” value worked out at 14%.

As to `O=C(CN1C(=O)NC2(CCCCC2)C1=O)NNC(=O)C1CC1`, the “hERG current change (%, negative = inhibition) at 10uM” value is -1.21%.

With `CNC(=O)CSc1nnc(-c2cccs2)o1`, the “hERG current change (%, negative = inhibition) at 10uM” value was determined as 1.75%.

Consider `COC(=O)c1[nH]c2ccccc2c1NC(=O)c1ccccc1[N+](=O)[O-]`, for which the “hERG current change (%, negative = inhibition) at 10uM” value came to 5.24%.

`COc1ccc([C@H]2/C=C\CN(C(=O)C3CC3)[C@@H](C)C(=O)N2Cc2ccc(F)cc2)cc1`: the “hERG current change (%, negative = inhibition) at 10uM” value was -34.8%.

In the case of `COc1ccc(CNC(=O)C(C)N2CCN(S(=O)(=O)c3ccccc3F)CC2)cc1` (stereo not shown), the “hERG current change (%, negative = inhibition) at 10uM” value is -15.9%.

Take `CCOc1ccccc1NC(=O)CSc1nnnn1C1CCCC1`: the “hERG current change (%, negative = inhibition) at 10uM” value was -17.4%.

Consider `O=C(Nc1ccc(F)cc1)c1cccc2c1C(=O)N(Cc1ccccn1)C2`, for which the “hERG current change (%, negative = inhibition) at 10uM” value is -27.6%.

Turning to `Cc1cccc(C)c1-n1ncc(C(=O)NC2CCCC2)c1C1CCNCC1`, the “hERG current change (%, negative = inhibition) at 10uM” value is given as 18.9%.

Consider `CCOc1ccc(NC(=O)CN(C)c2ccc(S(=O)(=O)N(C(C)C)C(C)C)cn2)cc1OCC`, for which the “hERG current change (%, negative = inhibition) at 10uM” value worked out at 5.89%.

With `CCOC(=O)c1cccc(N2C(=O)c3ccccc3S2(=O)=O)c1`, the “hERG current change (%, negative = inhibition) at 10uM” value is -59.5%.

Regarding `O=C(NCc1cccnc1)NC1(c2ccccc2)CC1`, the “hERG current change (%, negative = inhibition) at 10uM” value stood at 11.5%.

For the molecule `O=c1c2ccccc2nc(SCC2CCCCO2)n1-c1ccccc1` (stereo not shown), the “hERG current change (%, negative = inhibition) at 10uM” value worked out at 6.19%.

Take `O=C(CSc1nnc(Cc2ccccc2)o1)NCCc1ccccc1`: the “hERG current change (%, negative = inhibition) at 10uM” value is -3.81%.

`COc1ccc(C(=O)Cn2cnc3ccc(Cl)cc3c2=O)cc1F`: the “hERG current change (%, negative = inhibition) at 10uM” value is listed as -7.44%.

Regarding `O=C(c1cccc(Oc2ccc([N+](=O)[O-])cc2Cl)c1)N1CCOCC1`, the “hERG current change (%, negative = inhibition) at 10uM” value was -36.6%.

With `COc1cccc(CNC(=O)Nc2cccs2)c1`, the “hERG current change (%, negative = inhibition) at 10uM” value is listed as 11%.

For the molecule `CCOC(=O)CNC(=O)CSc1ncnc2c1cnn2-c1ccccc1`, the “hERG current change (%, negative = inhibition) at 10uM” value is listed as -7.28%.
